The source of these data is patent US20060160798A1, “Viral polymerase inhibitors” (Boehringer Ingelheim (Canada) Ltd., priority 2001, published 2006).

SMILES strings stand for the structures.

One test deals with Huh7 cells that stably maintain a subgenomic HCV replicon (S22.3 cell-line). Briefly: Cell based HCV RNA replication assay (S22.3 replicon cells, real-time RT-PCR). Conditions: Hepatitis C virus, Huh-7, 72 h, S22.3 cells, 72 hours incubation, HCV RNA by RT-PCR.
On to `CN1CCC(NC(=O)c2ccc3c(C4CCCC4)c(-c4ccccn4)n(C)c3c2)(c2nc3cc(C=CC(=O)O)ccc3[nH]2)C1` (centres unmarked) [Entry 1028], for which the EC50 was less than 500 nM.
The same measure, in the same setting: in the case of `Cn1c(-c2ccccn2)c(C2CCCCC2)c2ccc(C(=O)NC(C)(C)C(=O)Nc3ccc(-c4ccc(C(N)=O)o4)cc3)cc21` [Entry 2073] it was less than 500 nM.
Still for that read-out and setting: under `Cn1c(-c2ccccn2)c(C2CCCCC2)c2ccc(C(=O)NC(C)(C)C(=O)Nc3ccc(-c4nc(C(=O)O)cs4)cc3)cc21` [Entry 2071] stands less than 500 nM.
Same read-out and setting: in the case of `CCN1CCC(NC(=O)c2ccc3c(C4CCCCC4)c(-c4ccccn4)n(C)c3c2)(C(=O)Nc2ccc3sc(C(=O)O)c(C)c3c2)CC1` [Entry 2099] it was less than 500 nM.
Regarding `CCn1c(-c2ccccc2)c(C2CCCCC2)c2ccc(C(=O)NC(C)(C)C(=O)Nc3ccc(/C=C/C(=O)O)cc3)cc21` [Entry 2020], the EC50 is less than 500 nM.
`CCn1c(C(=O)O)cc2cc(NC(=O)[C@@H](C)NC(=O)c3ccc4c(C5CCCCC5)c(-c5ccoc5)[nH]c4c3)ccc21` [Entry 2015]: the EC50 is less than 500 nM.
On the same count and under the same terms, under `Cn1c(-c2ccccn2)c(C2CCCC2)c2ccc(C(=O)NC3(c4nc5cc(C=CC(N)=O)ccc5[nH]4)CCC3)cc21` [Entry 1027] stands less than 500 nM; under `Cn1c(-c2ccccn2)c(C2CCCCC2)c2ccc(C(=O)NC(C)(C)C(=O)Nc3ccc(NC(=O)C(=O)O)cc3)cc21` [Entry 2094], 500 to 5000 nM.
`CC(=O)Nc1ccc(-c2c(C3CCCCC3)c3ccc(C(=O)NC(C)(C)C(=O)Nc4ccc(/C=C/C(=O)O)cc4)cc3n2C)cc1C` [Entry 2104]: the concentration for a half-maximal effect (EC50) was less than 500 nM.
Same read-out and setting: in the case of `Cn1c(-c2cnc(N)nc2)c(C2CCCCC2)c2ccc(C(=O)NC(C)(C)C(=O)Nc3ccc(/C=C/C(=O)O)cc3)cc21` [Entry 2081] it was less than 500 nM.
Same read-out and setting: under `Cn1c(-c2ccccn2)c(C2CCCC2)c2ccc(C(=O)NC3(c4nc5ccc(C=CC(=O)O)cc5[nH]4)CCCC3)cc21` [Entry 1014] stands less than 500 nM.
Molecule `CN(C)c1ccc(-c2c(C3CCCCC3)c3ccc(C(=O)NC(C)(C)C(=O)Nc4ccc(/C=C/C(=O)O)cc4)cc3n2C)cn1` [Entry 2032] returned a 50% effective concentration (EC50) of less than 500 nM.
Same read-out and setting: under `C/C(=C\c1ccc(NC(=O)C2(NC(=O)c3ccc4c(C5CCCCC5)c(-c5ccoc5)[nH]c4c3)CCCC2)cc1)C(=O)O` [Entry 2005] stands less than 500 nM; under `CC(C)(NC(=O)c1ccc2c(C3CCCCC3)c(-c3ccccc3)[nH]c2c1)C(=O)Nc1ccc(-c2nc(C(=O)O)cs2)cc1` [Entry 2018], less than 500 nM.
Same read-out and setting: in the case of `CCN1CCC(NC(=O)c2ccc3c(C4CCCCC4)c(-c4ccccn4)n(C)c3c2)(C(=O)Nc2ccc(-c3ccc(C(=O)O)nc3)cc2)CC1` [Entry 2101] it was less than 500 nM; in that of `Cn1c(-c2ccccn2)c(C2CCCCC2)c2ccc(C(=O)NC3(C(=O)Nc4ccc(-c5cnc(N)nc5)cc4)CCC3)cc21` [Entry 2113], less than 500 nM; in that of `CN1CCC(NC(=O)c2ccc3c(C4CCCCC4)c(-c4ccoc4)[nH]c3c2)(C(=O)Nc2ccc(/C=C/C(=O)O)cc2)CC1` [Entry 2052], less than 500 nM.
Same read-out and setting: in the case of `Cn1c(-c2cnco2)c(C2CCCCC2)c2ccc(C(=O)NC(C)(C)C(=O)Nc3ccc(/C=C/C(=O)O)cc3)cc21` [Entry 2108] it was less than 500 nM; in that of `CC(=O)N1CCC(NC(=O)c2ccc3c(C4CCCCC4)c(-c4ccoc4)[nH]c3c2)(C(=O)Nc2ccc(/C=C/C(=O)O)cc2)CC1` [Entry 2055], less than 500 nM.

Staying with this test, now noted: Hepatitis C virus, Huh-7, Table 6.
`Cn1c(-c2ccc(N)cc2)c(C2CCCC2)c2ccc(C(=O)NC3(C(=O)Nc4ccc(/C=C/C(=O)O)cc4)CCCC3)cc21` [Entry 6053] yielded an EC50 of less than 500 nM.
The molecule `Cn1c(-c2csc(N)n2)c(C2CCCC2)c2ccc(C(=O)NC3(C(=O)Nc4ccc(/C=C/C(=O)O)cc4)CCC3)cc21` [Entry 6074] displayed an EC50 of less than 500 nM.
In turn, `C=Cc1c(C2CCCC2)c2ccc(C(=O)NC3(C(=O)Nc4ccc(/C=C/C(=O)O)cc4)CCCC3)cc2n1C` [Entry 6099] gave an EC50 of less than 500 nM.
Still for that read-out and setting: in the case of `Cn1c(-c2csc(NCCN3CCCCC3)n2)c(C2CCCC2)c2ccc(C(=O)NC3(C(=O)Nc4ccc(/C=C/C(=O)O)cc4)CCC3)cc21` [Entry 6078] it was less than 500 nM.
The same measure, in the same setting: under `Cn1c(-c2cnccn2)c(C2CCCC2)c2ccc(C(=O)NC3(C(=O)Nc4ccc(/C=C/C(=O)O)cc4)CCC3)cc21` [Entry 6038] stands less than 500 nM.
Same read-out and setting: in the case of `CC(C)Nc1nc(-c2c(C3CCCC3)c3ccc(C(=O)NC(C)(C)C(=O)Nc4ccc(/C=C/C(=O)O)cc4)cc3n2C)cs1` [Entry 6017] it was less than 500 nM.
In turn, `COCCNc1nc(-c2c(C3CCCC3)c3ccc(C(=O)NC(C)(C)C(=O)Nc4ccc(/C=C/C(=O)O)cc4)cc3n2C)cs1` [Entry 6020] yielded a concentration giving a half-maximal response (EC50) of less than 500 nM.
`Cc1cccc(-c2c(C3CCCC3)c3ccc(C(=O)N[C@@]4(C(=O)Nc5ccc(/C=C/C(=O)O)cc5)CCN(C)C4)cc3n2C)n1` [Entry 6116]: the EC50 is less than 500 nM.
Take `Cn1c(-c2csc(NC(=O)C(C)(C)C)n2)c(C2CCCC2)c2ccc(C(=O)NC3(C(=O)Nc4ccc(/C=C/C(=O)O)cc4)CCC3)cc21` [Entry 6081]: the EC50 was less than 500 nM.
Still for that read-out and setting: under `CN(C)CCNc1nc(-c2c(C3CCCC3)c3ccc(C(=O)NC(C)(C)C(=O)Nc4ccc(/C=C/C(=O)O)cc4)cc3n2C)cs1` [Entry 6035] stands less than 500 nM; under `Cn1c(-c2csc(-c3ccncc3)n2)c(C2CCCC2)c2ccc(C(=O)NC(C)(C)C(=O)Nc3ccc(/C=C/C(=O)O)cc3)cc21` [Entry 6011], less than 500 nM.
Same read-out and setting: under `Cn1c(-c2nccs2)c(C2CCCC2)c2ccc(C(=O)NC3(C(=O)Nc4ccc(/C=C/C(=O)O)cc4)CCCC3)cc21` [Entry 6051] stands less than 500 nM.
Molecule `Cn1c(-c2ccsc2)c(C2CCCC2)c2ccc(C(=O)NC3(C(=O)Nc4ccc(/C=C/C(=O)O)cc4)CCCC3)cc21` [Entry 6055] gave an EC50 of less than 500 nM.
The same measure, in the same setting: under `Cn1c(-c2cscn2)c(C2CCCC2)c2ccc(C(=O)NC3(C(=O)Nc4ccc(/C=C/C(=O)O)cc4)CCCC3)cc21` [Entry 6085] stands less than 500 nM.
`Cn1c(-c2ccccn2)c(C2CCCC2)c2ccc(C(=O)N[C@@]3(C(=O)Nc4ccc(/C=C/C(=O)O)cc4)CCN(S(C)(=O)=O)C3)cc21` [Entry 6124] yielded an EC50 of less than 500 nM.
On to `CCCNc1nc(-c2c(C3CCCC3)c3ccc(C(=O)NC(C)(C)C(=O)Nc4ccc(/C=C/C(=O)O)cc4)cc3n2C)cs1` [Entry 6014], for which the EC50 is less than 500 nM.
Still for that read-out and setting: in the case of `CCNc1nc(-c2c(C3CCCC3)c3ccc(C(=O)NC4(C(=O)Nc5ccc(/C=C/C(=O)O)cc5)CCCC4)cc3n2C)cs1` [Entry 6088] it was less than 500 nM.
As for `CCc1ccnc(-c2c(C3CCCC3)c3ccc(C(=O)NC4(C(=O)Nc5ccc(/C=C/C(=O)O)cc5)CCN(C)CC4)cc3n2C)c1` [Entry 6068], the EC50 is 500 to 5000 nM.
On the same count and under the same terms, under `Cn1c(-c2csc(NC(=O)C(C)(C)C)n2)c(C2CCCC2)c2ccc(C(=O)NC3(C(=O)Nc4ccc(/C=C/C(=O)O)cc4)CCCC3)cc21` [Entry 6096] stands less than 500 nM.
As for `Cn1c(-c2csc(-c3ccccc3)n2)c(C2CCCC2)c2ccc(C(=O)NC(C)(C)C(=O)Nc3ccc(/C=C/C(=O)O)cc3)cc21` [Entry 6012], the EC50 was less than 500 nM.
For `Cn1c(-c2ccccn2)c(C2CCCC2)c2ccc(C(=O)NC3(C(=O)Nc4ccc(/C=C/C(=O)O)cc4)CC3)cc21` [Entry 6036], the EC50 was less than 500 nM.
Still for that read-out and setting: in the case of `Cn1c(-c2csc(N)n2)c(C2CCCC2)c2ccc(C(=O)NC3(C(=O)Nc4ccc(/C=C/C(=O)O)cc4)CCCC3)cc21` [Entry 6089] it was less than 500 nM; in that of `COCCNc1nc(-c2c(C3CCCC3)c3ccc(C(=O)NC4(C(=O)Nc5ccc(/C=C/C(=O)O)cc5)CCC4)cc3n2C)cs1` [Entry 6077], less than 500 nM; in that of `Cn1c(-c2csc(-c3cccnc3)n2)c(C2CCCC2)c2ccc(C(=O)NC(C)(C)C(=O)Nc3ccc(/C=C/C(=O)O)cc3)cc21` [Entry 6003], less than 500 nM.

The test is the same for the next values; noted with them: Hepatitis C virus, Huh-7, Table 7.
For `C/C(=C\c1ccc(NC(=O)C2(NC(=O)c3ccc4c(C5CCCC5)c(-c5ccsc5)n(C)c4c3)CCC2)cc1)C(=O)O` [Entry 7053], the EC50 is less than 500 nM.
On the same count and under the same terms, under `Cn1c(C(=O)O)cc2cc(NC(=O)C3(NC(=O)c4ccc5c(C6CCCC6)c(-c6ccc(N)cc6)n(C)c5c4)CCC3)ccc21` [Entry 7051] stands less than 500 nM; under `Cn1c(-c2ccccn2)c(C2CCCC2)c2ccc(C(=O)NC3(C(=O)Nc4ccc(S(N)(=O)=O)cc4)CCC3)cc21` [Entry 7068], less than 500 nM.
On to `C/C(=C\c1ccc(NC(=O)C2(NC(=O)c3ccc4c(C5CCCC5)c(-c5cccc(N)n5)n(C)c4c3)CCC2)cc1)C(=O)O` [Entry 7026], for which the EC50 was less than 500 nM.
`Cn1c(-c2ccccn2)c(C2CCCC2)c2ccc(C(=O)NC3(C(=O)Nc4ccc5c(Cl)c(C(=O)O)sc5c4)CCC3)cc21` [Entry 7007]: the EC50 was less than 500 nM.
Consider `Cn1c(-c2ccccn2)c(C2CCCC2)c2ccc(C(=O)NC3(C(=O)NCc4ccc(C(=O)O)cc4)CCC3)cc21` [Entry 7003], for which the EC50 was 500 to 5000 nM.
Same read-out and setting: under `Cc1cccc(-c2c(C3CCCC3)c3ccc(C(=O)NC4(C(=O)Nc5ccc(-c6ccc(C(=O)O)o6)cc5)CCCC4)cc3n2C)n1` [Entry 7021] stands less than 500 nM; under `C/C(=C\c1ccc(NC(=O)C2(NC(=O)c3ccc4c(C5CCCC5)c(-c5cccc(N)c5)n(C)c4c3)CCC2)cc1)C(=O)O` [Entry 7014], less than 500 nM; under `Cn1c(-c2ccccn2)c(C2CCCC2)c2ccc(C(=O)NC3(C(=O)Nc4ccc(-c5nnn[nH]5)cc4)CCC3)cc21` [Entry 7079], less than 500 nM.
Same read-out and setting: in the case of `Cn1c(-c2ccc(N)cc2)c(C2CCCC2)c2ccc(C(=O)NC3(C(=O)Nc4ccc(-c5ccc(C(=O)O)o5)cc4)CCC3)cc21` [Entry 7016] it was less than 500 nM; in that of `Cn1c(-c2ccccn2)c(C2CCCC2)c2ccc(C(=O)NC3(C(=O)Nc4ccc(-c5ccc(C(=O)O)o5)cc4)CCCC3)cc21` [Entry 7010], less than 500 nM; in that of `Cn1c(-c2ccsc2)c(C2CCCC2)c2ccc(C(=O)NC3(C(=O)Nc4ccc(-c5ccc(C(=O)O)o5)cc4)CCC3)cc21` [Entry 7019], less than 500 nM.
Still for that read-out and setting: under `CCc1ccnc(-c2c(C3CCCC3)c3ccc(C(=O)NC4(C(=O)Nc5ccc(-c6ccc(C(=O)O)o6)cc5)CCC4)cc3n2C)c1` [Entry 7042] stands 500 to 5000 nM.
